Laboratory results: PubChem BioAssay AID1347165 (National Center for Advancing Translational Sciences (NCATS), 2019)
Hit rate of the full screen: of about 220,000 compounds, about 5,700 (2.6%) were called active. The shares of active, inactive and inconclusive entries below differ from those in the screen. Calls follow the shape of the dose curve; as a rule, active = well fitted inhibition curve with a large enough effect; inconclusive = small, poorly fitted or top-dose-only effect; inactive = no such curve, though single readings can be large or run the other way. Potencies of inconclusive entries are doubtful fits and often do not repeat.

biological target: Lysine-specific demethylase 5B (Homo sapiens) (UniProt Q9UGL1); assay: Primary screen for KDM5B Histone Demethylases FDH-coupled qHTS; conditions: FDH-coupled NADH fluorescence (FDH is formaldehyde dehydrogenase); activity change, negative = inhibition: at 57.7 µM (top of the series) unless noted; also: nearly all actives have a fitted effect of over 70% in size; as to activity change, negative = inhibition: 0% is about no effect
Summary of the method: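 Inhibition is measured as reduced NADH fluorescence generation from FDH coupling to formaldehyde release. Truncated KDM5BΔAP at 200 nM final acts on H3K4me3 peptide (12.5 µM in substrate mix) in pH 7.5 HEPES buffer with Tween-20, 30 min, room temperature.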
Potency is read from the fitted curve at half-maximal effect; tags tell the direction and shape of the fitted curve.

UniProt Q9UGL1, sequence (Q9UGL1 whole entry, looked up, the tested form may be a part): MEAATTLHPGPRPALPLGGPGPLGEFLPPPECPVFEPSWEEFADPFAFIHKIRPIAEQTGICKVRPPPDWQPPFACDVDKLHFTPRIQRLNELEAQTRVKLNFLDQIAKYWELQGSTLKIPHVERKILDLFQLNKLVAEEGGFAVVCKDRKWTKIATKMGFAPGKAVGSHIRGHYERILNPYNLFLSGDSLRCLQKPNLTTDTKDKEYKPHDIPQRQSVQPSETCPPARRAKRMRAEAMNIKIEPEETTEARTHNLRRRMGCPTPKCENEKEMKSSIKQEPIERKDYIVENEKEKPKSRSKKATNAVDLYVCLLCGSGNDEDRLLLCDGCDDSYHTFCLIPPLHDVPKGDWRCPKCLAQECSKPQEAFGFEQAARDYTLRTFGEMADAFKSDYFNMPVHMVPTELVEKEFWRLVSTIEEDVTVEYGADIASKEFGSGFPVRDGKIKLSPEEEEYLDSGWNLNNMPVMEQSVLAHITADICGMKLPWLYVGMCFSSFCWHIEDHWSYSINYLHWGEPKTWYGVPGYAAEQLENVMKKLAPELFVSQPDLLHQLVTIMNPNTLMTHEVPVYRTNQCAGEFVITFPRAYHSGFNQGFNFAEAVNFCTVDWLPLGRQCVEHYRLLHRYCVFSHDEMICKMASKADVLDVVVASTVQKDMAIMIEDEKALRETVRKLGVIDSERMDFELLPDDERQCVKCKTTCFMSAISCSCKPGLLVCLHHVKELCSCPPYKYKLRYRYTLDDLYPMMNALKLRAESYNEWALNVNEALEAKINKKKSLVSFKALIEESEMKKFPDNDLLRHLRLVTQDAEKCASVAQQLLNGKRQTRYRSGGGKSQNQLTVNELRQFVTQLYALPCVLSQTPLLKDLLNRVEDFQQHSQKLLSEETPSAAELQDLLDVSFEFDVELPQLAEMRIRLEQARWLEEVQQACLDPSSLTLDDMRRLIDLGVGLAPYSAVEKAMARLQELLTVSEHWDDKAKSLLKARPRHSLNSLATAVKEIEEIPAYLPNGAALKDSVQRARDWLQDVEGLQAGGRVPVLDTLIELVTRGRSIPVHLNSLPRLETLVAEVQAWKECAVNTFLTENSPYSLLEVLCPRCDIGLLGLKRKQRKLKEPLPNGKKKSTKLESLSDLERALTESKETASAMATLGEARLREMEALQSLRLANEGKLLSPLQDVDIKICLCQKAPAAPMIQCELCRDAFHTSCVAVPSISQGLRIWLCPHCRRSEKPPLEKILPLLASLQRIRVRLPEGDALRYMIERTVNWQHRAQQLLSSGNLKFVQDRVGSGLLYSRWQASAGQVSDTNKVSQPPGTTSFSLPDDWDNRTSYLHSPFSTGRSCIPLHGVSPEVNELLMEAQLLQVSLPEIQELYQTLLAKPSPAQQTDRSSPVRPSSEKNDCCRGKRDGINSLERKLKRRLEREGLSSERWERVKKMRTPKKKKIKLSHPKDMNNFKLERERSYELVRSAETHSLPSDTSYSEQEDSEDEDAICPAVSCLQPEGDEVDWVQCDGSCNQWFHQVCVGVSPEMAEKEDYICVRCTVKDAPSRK

Structure (SMILES) | Potency | activity change, negative = inhibition
Cc1ccc2c(n1)N(C)[C@H](CO)CCN(Cc1ccccc1Cl)C2 | inconclusive: 35.5 µM [inhibitor, partial curve] | –
Cc1ccccc1-c1noc(-c2cc3ccccc3oc2=O)n1 | inconclusive: 7.08 µM [inhibitor, partial curve, poor fit] | –
COCCNC(=O)[C@@H]1C[C@H](Oc2ccccc2)CN1C(=O)CCc1c(C)nn(C)c1C | – | inactive: 27.7%
CCOc1ccccc1C(=O)NCc1nnc2ccc(-c3ccccc3)nn12 | active: 25.1 µM | –
O=C(c1ccc(F)cc1)N1CCC2(CC1)CN[S+](=O)([O-])c1cccnc1O2 | inconclusive: 100 µM [inhibitor, partial curve, poor fit] | –
CC1=C[C@@H](CO)[C@H](C(C)C)C[C@H]1CC(=O)N1CCN(c2ccccn2)CC1 | inconclusive: 39.8 µM [inhibitor, partial curve, poor fit] | –
COc1cccc(CC(=O)NC(c2cccs2)C2CCCC2)c1 (configuration not stated) | – | inactive: -3.73%
CC(=O)c1sc(=S)n(C)c1C | – | inactive: 5.33%
CC(=O)N1CCCC2(C1)CN(C)c1ccc(C(=O)NCC(C)C)cc12 (configuration not stated) | active: 31.6 µM | –
Cc1ccc2c(c1)C(c1ccccc1)N(C(=O)c1ccccc1F)CC(=O)N2 (configuration not stated) | inconclusive: 7.94 µM [inhibitor, partial curve, poor fit] | –
CSc1ncc(CN2CCCN(S(=O)(=O)N3CCCC3)CC2)cn1 | inconclusive: 20 µM [inhibitor, single point] | –
CCOc1ccc(C(=O)N2CCN(c3cc(-c4cccs4)[nH]n3)CC2)cc1 | inconclusive: 15.8 µM [inhibitor, partial curve] | –
Cc1cccc(C)c1OCC(=O)Nc1ccc(C(=O)Nc2ccccc2C(=O)O)cc1 | – | inactive: 8.96%
COc1ccc2c(c1)c(=O)c(S(=O)(=O)c1ccc(Cl)cc1)cn2C | inconclusive: 22.4 µM [inhibitor, single point] | –
CC(C)n1c(O)c(/C=C2\C=NN=C2c2ccccc2)sc1=S | – | inactive: 3.88%
COc1cccc(NC(=O)CN(C)CC(=O)Nc2c(C)cccc2C)c1 | – | inactive: 1.64%
CCn1nccc1C(=O)NCCn1ccn2nc(-c3ccc(C)c(C)c3)cc2c1=O | active: 35.5 µM | –
Cc1ccc(-n2nc(C)c(C(=O)NCCCN3CCN(c4ccc(F)cc4)CC3)c2-n2cccc2)cc1 | inconclusive: 10 µM [inhibitor, partial curve, poor fit] | –
Cc1ccccc1CS(=O)(=O)CC1Nc2ccc(C(=O)NCc3ccc(Cl)cc3)cc2NC1=O (configuration not stated) | inconclusive: 25.1 µM [inhibitor, partial curve, poor fit] | –
O=C1CN(Cc2cccc(-c3ccsc3)c2)CCN1c1cc(Cl)ncn1 | inconclusive: 6.31 µM [inhibitor, partial curve, poor fit] | –
COCC(=O)N[C@@H]1CN(Cc2ccc(C#N)cc2)CC[C@@H]1c1nc(C)no1 | inconclusive: 15.8 µM [inhibitor, partial curve, poor fit] | –

Structure (SMILES) | Potency | activity change, negative = inhibition
CCOc1cccc(CNC(=O)c2ccc(N3CCCC3)c(NC(=O)NCc3ccc(F)cc3)c2)c1 | inconclusive: 28.2 µM [inhibitor, single point] | –
O=C(Nc1cccc(C(=O)OCc2cc(=O)n3nc(C4CC4)sc3n2)c1)c1ccccc1 | – | inactive: 9.44%
COc1ccc(-c2coc3c(CN4CCOCC4)c(O)ccc3c2=O)cc1 | inconclusive: 25.1 µM [inhibitor, partial curve, poor fit] | –
Cc1ccc(C)c(NS(=O)(=O)c2ccc(N3CC(C(=O)O)CC3=O)cc2)c1 (configuration not stated) | – | inactive: 0.484%
O=C1C[C@@H]2CCN(C(=O)NC3CCCCC3)C[C@@H]2CCN1Cc1ccc2c(c1)OCO2 | – | inactive: -2.02% [at 86.2 µM]
Cc1ccc2c(C(=O)O)cc(-c3ccccn3)nc2c1C | inconclusive: 22.4 µM [inhibitor, partial curve, poor fit] | –
CCOc1ccccc1NS(=O)(=O)c1ccc(C(C)C)cc1 | – | inactive: 15.2%
O=C(CCc1ncc(-c2ccccc2Cl)o1)NCC1CCCO1 (configuration not stated) | – | inactive: 28.4%
c1ccc(-c2nc3c(c(NCC4OCCc5ccccc54)n2)CCNC3)nc1 (configuration not stated) | inconclusive: 11.2 µM [inhibitor, partial curve, poor fit] | –
COCCCNC(=O)CSC1=Nc2ccccc2C2=NC(CCC(=O)NCc3ccccc3OC)C(=O)N12 (configuration not stated) | inconclusive: 0.794 µM [inhibitor, partial curve, poor fit] | –
Cc1ccc(NC(=O)Cn2ccn3nc(-c4ccc(F)cc4)c(CO)c3c2=O)cc1C | inconclusive: 20 µM [inhibitor, single point] | –
Cc1cccc(OCC(=O)NCCCNC(=O)c2ccncc2)c1 | – | inactive: 13.3%
O=C(C1CCOCC1)N1CCC2(CC1)NCCc1c2[nH]c2ccccc12 | inconclusive: 39.8 µM [inhibitor, single point] | –
Cc1nnc(SCc2ccccc2)c2cc3sccc3n12 | inconclusive: 14.1 µM [inhibitor, partial curve, poor fit] | –
Cn1c(CN2CCC(O)CC2)nnc1C1CCCN(Cc2ccccn2)C1 (configuration not stated) | inconclusive: 15.8 µM [inhibitor, partial curve, poor fit] | –
O=C1CCN(C(=O)CCc2c[nH]c3ccccc23)CCCCCCN1 | inconclusive: 8.91 µM [inhibitor, partial curve, poor fit] | –
COc1ccccc1-c1ccnc(-c2nnc(C)n2C2CCCCC2)c1 | inconclusive: 31.6 µM [inhibitor, partial curve] | –
CCn1c(=O)c2cc(C(=O)N(CCN(C)C)Cc3ccccc3)sc2c2ccccc21 | inconclusive: 4.47 µM [inhibitor, full curve, poor fit] | –
CC1CCN(S(=O)(=O)C2CCS(=O)(=O)C2)CC1 (configuration not stated) | inconclusive: 25.1 µM [inhibitor, partial curve, poor fit] | –
Cc1ccc(Cn2cc(-c3ccncc3)cc2C(=O)N2CCCCCC2)cc1 | inconclusive: 28.2 µM [inhibitor, partial curve, poor fit] | –
COc1ccc(C2(C(=O)N3CCC(Cc4nc(-c5ccc(F)cc5)no4)CC3)CC2)cc1 | – | inactive: 8.78%
